Measured values reported in article PMC4336329 (PLoS ONE, 2015).
Out of some 310,000 compounds screened, about 2,200 (0.71%) showed an effect of 50% or more. The effect is printed as a negative number. This is one part of the list.

These compounds were tested against human ether-à-go-go-related gene (hERG) potassium channel (human, UniProt Q12809) (assay: primary screen, population patch clamp on CHO cells stably expressing hERG).
human ether-à-go-go-related gene (hERG) potassium channel, sequence (Q12809 whole entry, looked up): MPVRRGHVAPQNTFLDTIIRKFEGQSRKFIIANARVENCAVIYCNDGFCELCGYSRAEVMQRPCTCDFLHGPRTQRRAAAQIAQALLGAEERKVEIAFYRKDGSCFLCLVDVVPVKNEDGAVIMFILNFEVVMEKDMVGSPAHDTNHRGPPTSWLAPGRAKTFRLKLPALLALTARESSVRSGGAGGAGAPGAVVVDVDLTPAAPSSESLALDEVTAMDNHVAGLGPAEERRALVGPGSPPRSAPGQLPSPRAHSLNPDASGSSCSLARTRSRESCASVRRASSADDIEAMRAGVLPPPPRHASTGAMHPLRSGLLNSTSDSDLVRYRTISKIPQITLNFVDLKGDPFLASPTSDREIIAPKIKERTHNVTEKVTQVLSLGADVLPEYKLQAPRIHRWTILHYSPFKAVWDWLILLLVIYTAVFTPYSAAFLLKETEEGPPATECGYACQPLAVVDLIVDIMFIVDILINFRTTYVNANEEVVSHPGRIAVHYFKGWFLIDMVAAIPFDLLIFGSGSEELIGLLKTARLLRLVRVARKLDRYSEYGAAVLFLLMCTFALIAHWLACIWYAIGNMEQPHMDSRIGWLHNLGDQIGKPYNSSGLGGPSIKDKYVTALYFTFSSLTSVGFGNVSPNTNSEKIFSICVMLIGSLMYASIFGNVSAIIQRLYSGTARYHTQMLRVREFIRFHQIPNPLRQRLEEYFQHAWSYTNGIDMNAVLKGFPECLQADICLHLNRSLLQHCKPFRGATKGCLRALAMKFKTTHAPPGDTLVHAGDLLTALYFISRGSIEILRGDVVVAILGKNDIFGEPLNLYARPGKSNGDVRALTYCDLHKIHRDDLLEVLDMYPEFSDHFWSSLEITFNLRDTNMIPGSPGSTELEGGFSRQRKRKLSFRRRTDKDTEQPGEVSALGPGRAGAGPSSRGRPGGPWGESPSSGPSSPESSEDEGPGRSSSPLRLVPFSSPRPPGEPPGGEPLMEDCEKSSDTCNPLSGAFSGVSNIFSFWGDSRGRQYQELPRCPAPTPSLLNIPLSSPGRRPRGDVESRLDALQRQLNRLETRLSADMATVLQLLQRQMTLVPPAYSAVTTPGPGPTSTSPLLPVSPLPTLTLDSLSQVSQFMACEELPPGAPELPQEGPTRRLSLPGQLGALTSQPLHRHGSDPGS

Structure (SMILES) | hERG current change (%, negative = inhibition) at 1uM [%]
CCOC(=O)C1C(=O)C=C(c2ccc([N+](=O)[O-])cc2)CC1c1ccccc1 (stereo not drawn) | -34.5
CCOC(=O)C1CCCN(CC(=O)Nc2cccc(C(C)=O)c2)C1 (stereo not drawn) | 21
O=C(Cn1c(=O)c2ccccc2n(CC(=O)N2CCCCC2)c1=O)N1CCCCC1 | 7.2
O=C(NCCN1CCOCC1)C(Sc1ccccc1)c1ccccc1 (stereo not drawn) | 3.69
c1ccc(-c2nnc3n2N=C(c2ccc4c(c2)OCO4)CS3)nc1 | -18.4
O=S(=O)(c1ccc(Cl)cc1)N1CCN(C(=S)Nc2ccc(F)c(Cl)c2)CC1 | 9.01
NC(=O)c1c(Nc2nc3c(F)cccc3s2)sc2c1CCCC2 | 17.1
CCOc1ccccc1NC(=O)C1CCCN(C(=O)NCc2ccccc2)C1 (stereo not drawn) | 14.2
Cc1ccc(S(=O)(=O)NC(=O)C2CCCCC2)cc1 | 7.15
CC(Oc1ccc(Br)cc1)C(=O)NC1CCN(Cc2ccccc2)CC1 (stereo not drawn) | -59.6
Cc1[nH]c(=O)c(C#N)c(C)c1CCC(=O)N(C)CC(=O)Nc1ccc(Cl)c(Cl)c1 | 16.1
O=C(COC(=O)Cn1cnc2ccccc2c1=O)Nc1ccccc1Sc1ccc(Cl)cc1 | 2.51
CCOc1ccc(-n2ccnc2SCC(=O)Nc2nnc(CC)s2)cc1 | -2.2
COc1cnc(SCCC(F)=C(F)F)[nH]c1=O | 16.6
O=C(Nc1ccc(Br)cc1)c1cc(-c2cccs2)on1 | 11.6
CN1CCN(CCNC(=O)Nc2ccc(Cl)cc2)CC1 | 9.31
O=C(CCNC(=O)c1ccc([N+](=O)[O-])cc1)Nc1ccc(F)c(F)c1F | 3.31
O=C(CCCc1ccccc1)Nc1cccc2c1CCCC2 | 8.79
Cc1nc(CNS(=O)(=O)c2ccc(Oc3ccccc3)cc2)cs1 | 11.6
O=C(CSc1ccccc1)NCc1ccc(F)cc1 | 3.35
O=C(O)CCCCCNS(=O)(=O)c1cccc2c1C(=O)c1ccccc1C2=O | -3.39
CCOC(=O)c1ccc(N2CCOCC2)c(NC(=O)c2nccnc2C(=O)O)c1 | 10.5

Structure (SMILES) | hERG current change (%, negative = inhibition) at 1uM [%]
CCOC(=O)C1(Cc2cccc(F)c2)CCN(C(=O)COC)CC1 | 7.49
Cc1nn(Cc2ccccc2)c(C)c1C(=O)NCCN1C(=O)S/C(=C\c2ccccc2)C1=O | 7.35
N#Cc1ccccc1Sc1ccccc1C(=O)NCC(c1ccco1)N1CCCC1 (stereo not drawn) | 9.97
Cc1ccc(CCN2CC(C(=O)NCCCN3CCN(C)CC3)CC2=O)cc1 (stereo not drawn) | 12.7
CC(=O)c1ccc(NC(=O)C(C)NCc2ccc(Cl)cc2)cc1 (stereo not drawn) | 3.39
Cc1ccc(N(C(=O)c2csnn2)C(C(=O)NC(C)(C)C)c2ccccn2)cc1 (stereo not drawn) | 11.4
COc1ccc(N(CC(=O)NC(C)(C)C)C(=O)CCC(=O)Nc2nccs2)cc1 | 10.8
Cc1ccccc1NC(=O)COC(=O)c1ccc2nc(C)c(C)nc2c1 | 12.4
CCC1(c2ccccc2)NC(=O)N(CC(=O)Nc2ccccc2N2CCCC2)C1=O (stereo not drawn) | 1.49
CC1=C(C(=O)OCC(C)C)C(c2ccsc2)C2=C(CCCC2=O)N1 (stereo not drawn) | 12.7
O=C(CCC(=O)OCC(=O)c1ccc(Br)cc1)Nc1ccc(Br)c2cccnc12 | 12.9
O=C(COC(=O)c1ccccc1NC(=O)c1ccco1)NC1CCCCC1 | -4.44
Cc1ccc(-n2nnnc2CN2CCCCC2)cc1 | 5.52
COc1ccc(-n2c(SCC(=O)/C(C#N)=C(\C)N)nc3ccccc3c2=O)cc1OC | 5.47
CC1(c2nnc(Cc3ccccc3)o2)CC(c2cccnc2)=NO1 (stereo not drawn) | 5.9
CCOC(=O)c1ccc(Oc2cn[nH]c2-c2ccc(O)cc2O)cc1 | 11.9
CC(=O)c1ccc(NC(=O)c2noc3c2CCCCC3)cc1 | 8.63
CC1(C)CC(=O)C(N=Nc2c(F)cccc2F)=C(O)C1 | 15.3
COc1cc(CN2C(=O)NC(=O)C3(Cc4cc(C)ccc4N(C)C3)C2=O)cc(OC)c1 (stereo not drawn) | -0.657
Clc1ccc(CSc2nnc(-c3cccnc3)n2Cc2ccco2)c(Cl)c1 | -42.3
COc1cccc(/C=C/C(=O)OCC(=O)NC2CC2)c1 | 10.5
COc1ccc(-c2[nH]ncc2/C=N\NC(=O)c2ccc(C(C)(C)C)cc2)cc1OC | 1.77

Structure (SMILES) | hERG current change (%, negative = inhibition) at 1uM [%]
Cc1ccc(NC(=O)COC(=O)CCC(=O)c2cccs2)c(Br)c1 | 10.1
Cc1ccc(/C=C/C(=O)OCC(=O)Nc2ccccc2Sc2ccccc2)cc1 | -1.05
O=c1cc(-c2ccc3c(c2)OCCO3)oc2ccc(Cl)cc12 | 3.95
Cc1ccc(C(=O)NNC(=O)Cc2nc3nc(C)cc(C)n3n2)cc1 | 25.2
O=C(NC(=S)NCCN1CCOCC1)c1ccc(F)cc1 | 11.2
Cc1cccc(NC(=O)c2ccccc2C(=O)O)c1 | 0.803
CN(CC(=O)Nc1ccc(F)c(F)c1F)C(=O)c1ccc(=O)[nH]c1 | 18.6
COC(CNC(=O)c1cnn2c(C)c(Cc3ccccc3)c(C)nc12)OC | 5.93
CC(C)N(C)S(=O)(=O)c1ccc(NC(=O)CSC(=S)N2CCCC2)cc1 | 6.97
COc1ccc(C(=O)O)cc1S(=O)(=O)NCc1cccnc1 | 15.1
C/C=C(\C)CN1CCC(Oc2cc(C(=O)NC3CC3)ccc2OC)CC1 | -59.9
CC(=O)Nc1ccc(Nc2ncnc3c2cnn3-c2ccc(C)cc2C)cc1 | -14.8
CCCCn1c(CN2CCOCC2)nc2c1c(=O)n(C)c(=O)n2C | 11.9
O=C(N1CCCC1)N1CCN(S(=O)(=O)c2ccccc2)CC1 | 14.8
O=C(CCc1nc2ccccc2[nH]c1=O)OCC(=O)c1ccc(Cl)cc1 | 3.45
COc1ccc(-c2csc(NC(=O)Cc3ccccc3F)n2)cc1OC | 12.2
C/C(=N\NC(=O)COc1ccccc1[N+](=O)[O-])c1cccc(NC(=O)c2ccncc2)c1 | 12.5
O=C(COC(=O)c1cc(=O)[nH]c2ccccc12)NC1CCCCCCC1 | 9.18
COC(=O)C(C(=O)OC)C(c1ccccc1)C(C(=O)c1ccccc1)[N+](=O)[O-] (stereo not drawn) | 13.3
COc1ccc(Cn2ccnc2)cc1Br.Cl | 14.9
COc1ccccc1OCCCn1cc(C(=O)C2CC2)c2ccccc21 | 10.1
Cc1ccc2c(c1C)NC(=O)C2(O)CC(=O)c1ccc2c(c1)OCO2 (stereo not drawn) | 4.51

Structure (SMILES) | hERG current change (%, negative = inhibition) at 1uM [%]
O=C(c1cc(N2C(=O)C3C4CCC(C4)C3C2=O)ccc1Cl)N1CCN(c2ccccc2F)CC1 (stereo not drawn) | 1.55
COc1cc(C(=O)NCC(=O)N/N=C/c2ccc(-c3ccc([N+](=O)[O-])cc3)o2)cc(OC)c1OC | 7.05
Cc1ccc(S(=O)(=O)c2ccc(Cl)cc2)cc1S(=O)(=O)N1CCN(C)CC1 | -2.11
Cc1nc2cc(Cl)c(Cl)cc2nc1C | 13.5
COc1cc(/C=N/NS(=O)(=O)c2ccc(C)c([N+](=O)[O-])c2)cc([N+](=O)[O-])c1O | 17.2
COc1ccc(OC)c(NC(=O)C2CCCN2C(=O)NC2CCCCC2)c1 (stereo not drawn) | 10.4
O=C(NCCOc1ccccc1-c1ccccc1)c1ccco1 | 17.7
O=C(O)/C=C/C(=O)Nc1nccs1 | 14
Cc1cccc(OCCNC(=O)c2ccc(Cl)c(S(=O)(=O)NCc3cccnc3)c2)c1 | -14.6
O=[N+]([O-])c1cc(S(=O)(=O)NCCc2ccccn2)ccc1Cl | 8.28
Cc1ccc(NC(=O)CN2CCC(NC(=O)c3cccc(F)c3)CC2)cc1C | -13.4
CC(OC(=O)c1cc(S(=O)(=O)N2CCOCC2)ccc1F)C(=O)NC1CCCCC1C (stereo not drawn) | 9.77
Cc1cccn2c(=O)c3cc(C(=O)NCc4ccco4)c(=N)n(CCOCCO)c3nc12 | -63.3
COc1cc2nc(CN3CCOCC3)n(CC(=O)NCC(F)(F)F)c(=O)c2cc1OC | 11.5
CC(C)C(=O)N1CCN(c2ccccc2NC(=O)c2ccco2)CC1 | -2.98
COc1ccc(-c2[nH]ncc2CNC(C)c2ccccc2Cl)cc1F (stereo not drawn) | 5.44
CC1CCN(CC(=O)Nc2ccccc2C#N)CC1 | 13.1
COc1ccc(S(=O)(=O)N2CCCC(C(=O)NCc3ccncc3)C2)cc1 (stereo not drawn) | -1.34
CC(=O)c1ccc(N2CCN(C(=O)C3(S(=O)(=O)c4ccc(Cl)cc4)CC3)CC2)cc1 | -17
COC(=O)c1sccc1OC(C)C(C)=O (stereo not drawn) | 12.6
CN(Cc1ccccc1)S(=O)(=O)c1ccc(OCC(=O)NCc2ccncc2)cc1 | -34.8
